Test results taken from PubChem BioAssay AID686978 (National Center for Advancing Translational Sciences (NCATS), 2013).
“And” between values parts separate entries of the source, which are not always exact repeats. Equal entries are not always repeated. Hit rate of the full screen: of about 420,000 compounds, about 64,000 (15%) were called active. The shares of active, inactive and inconclusive entries below differ from those in the screen. The call rests on the fitted dose curve; in most records, active means well fitted inhibition curve with a large enough effect; inconclusive means small, poorly fitted or top-dose-only effect; inactive means flat fitted curve, though single readings scatter. Where the call is inconclusive, the potency comes from a doubtful curve fit.

Assay: qHTS for Inhibitors of human tyrosyl-DNA phosphodiesterase 1 (TDP1): qHTS in cells in absence of CPT; further: nearly all actives have a fitted effect of over 55% in size
Details: DT40 Tdp1-/- hTDP1 cells, no CPT, ATP luminescence, 48 h; series mostly up to 46.2 µM
Procedure, shortened: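 Stably hTDP1-transfected Tdp1-null chicken DT40 cells were treated with library compounds minus camptothecin and grown for at least 48 hr at 37 °C, after which cellular ATP was quantified by luminescence.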
Potency means the concentration at half of the fitted maximal effect; tags describe the fitted curve by direction and shape.

Structure (SMILES) | Potency
N#CCCN(C1CCCCC1)S(=O)(=O)CCOc1ccccc1 | inconclusive: 29.1 µM [inhibitor, single point]
Cc1ccccc1C1(CC(=O)N2CCCCC2c2cccnc2)CC(=O)N(C2CCCC2)C1=O (stereo unspecified) | inconclusive: 18.4 µM [inhibitor, partial curve]
COc1ccc(C(=O)c2c3ccc(C(F)(F)F)cc3[n+]([O-])n2CCCN)cc1 | inconclusive: 25.9 µM [inhibitor, single point]
Cc1c(C(=O)NCc2cccc(Cl)c2)sc2nc[nH]c(=O)c12 | inconclusive: 18.4 µM [inhibitor, partial curve]
Cc1ccccc1NC(=O)Cc1nc(COC(=O)c2ccc(O)cc2O)cs1 | inconclusive: 29.1 µM [inhibitor, single point]
Cn1c(SCC(=O)NCC2CCCO2)nc2scc(-c3ccccc3)c2c1=O (stereo unspecified) | inconclusive: 29.1 µM [inhibitor, single point]
COc1cccc(Oc2nc(C)nc3c2oc2ccccc23)c1 | inconclusive: 29.1 µM [inhibitor, single point]
COc1ccc(Cl)cc1NC(=O)COC(=O)C(CC(C)C)N1C(=O)C2CC=CCC2C1=O (stereo unspecified) | active: 18.4 µM
Cc1cc(N/N=C/c2ccncc2)nc2ccccc12 | inconclusive: 29.1 µM [inhibitor, single point]
CC(=O)c1cccc(NC(=S)N2CCN(c3ccccn3)CC2)c1 | inactive
CCCN1CN(Cc2ccccc2)CNC1=S | inactive
CCOc1ccccc1CNC(=O)c1ccc2nc(N3CCOCC3)sc2c1 | inconclusive: 29.1 µM [inhibitor, single point]
Cc1nc(N2CCCC2)c2c(C(=O)Nc3cccc(Cl)c3)c(C)oc2n1 | inactive
O=C(NCCCc1ccccc1)c1ccc(Br)o1 | inconclusive: 16.4 µM [inhibitor, partial curve]
COc1ccccc1NC(=O)COc1ccc(C(=O)NC2CCCc3ccccc32)cc1OC (stereo unspecified) | active: 7.31 µM
O=C(O)c1ccc(CNC(=O)C23CC4CC(CC(C4)C2)C3)cc1 | inactive
Cc1cccc2nc(CSc3nc4cc([N+](=O)[O-])ccc4s3)cn12 | inconclusive: 23.1 µM [inhibitor, single point]
CCOc1ccc(NC(=O)Cn2ccn3nc(-c4ccc(OC)c(OC)c4)cc3c2=O)cc1 | inactive
CC12CCC(C(=O)OC3CCCCC3)(OC1=O)C2(C)C (stereo unspecified) | inactive
CCNC(=O)C1(C)CCN(C(=O)c2ccc(OC)c(OC)c2)C1 (stereo unspecified) | inactive
COc1cccc(CC(=O)Nc2cc(S(=O)(=O)N3CCOCC3)ccc2N2CCN(C)CC2)c1 | inactive
COc1ccc(-c2cc(C3CC3)nc3sc(C#N)c(N)c23)cc1 | inconclusive: 23.1 µM [inhibitor, single point]
C=CCN1C(=O)c2ccc(C(=O)N(C)CC(=O)Nc3ccccc3Cl)cc2C1=O | inactive
O=C(c1ccccc1Cl)N1CCNCC1 | inactive
CCCCCN(C(=O)CSc1n[nH]c(-c2ccc(C)cc2)n1)c1c(N)n(CCCC)c(=O)[nH]c1=O | inactive
CCCOc1nc(N)c(C#N)c(-c2ccccc2F)c1C#N | inconclusive: 25.9 µM [inhibitor, single point]

Structure (SMILES) | Potency
CCNc1ncc2nc(-c3ccccc3)c(=O)n(-c3ccc(OC)cc3)c2n1 | active: 0.517 µM
O=C(NC(=S)N1CCCCC1CO)c1cccs1 (stereo unspecified) | inactive
CCOC(=O)C(C)Sc1nc2c([nH]c3ccccc32)c(=O)n1C (stereo unspecified) | inconclusive: 20.6 µM [inhibitor, partial curve]
Cc1nnc(SCC(=O)Nc2c(C)n(C)n(-c3ccccc3)c2=O)n1Cc1ccccc1 | inactive
CCc1ccc(NC(=O)c2ccc(F)c(S(=O)(=O)N3CCN(c4ccc(OC)cc4)CC3)c2)cc1 | inconclusive: 5.8 µM [inhibitor, partial curve]
O=C(OCc1ccccc1)N1C=CC2CC1c1c(Cl)cccc12 (stereo unspecified) | inconclusive: 29.1 µM [inhibitor, single point]
Cc1ccc(C2(C)NC(=O)N(CC(=O)N3CCN(S(=O)(=O)c4ccc(Cl)s4)CC3)C2=O)cc1 (stereo unspecified) | inconclusive: 18.4 µM [inhibitor, single point]
O=[N+]([O-])c1c(NCCCO)cc(SCc2ccco2)c2nonc12 | active: 20.6 µM
COc1cccc(N2CCN(C(=O)c3ccc(CS(=O)Cc4ccccc4Cl)o3)CC2)c1 (stereo unspecified) | inconclusive: 7.31 µM [inhibitor, partial curve]
Cc1nn(CC(=O)NCCCN2CCC(N3CCCCC3)CC2)c(=O)c2cc(-c3ccccc3)nn12 | active: 4.11 µM
COc1ccc(NC(=O)Cn2cc(C(=O)c3ccccc3)c(=O)c3cc(OC)ccc32)c(OC)c1 | inactive
CS(=O)(=O)c1ccccc1C(=O)Nc1cccc2ncccc12 | inactive
O=C(c1ccc(C(F)(F)F)cc1)C1CCCN(C(=O)c2csnn2)C1 (stereo unspecified) | inconclusive: 20.6 µM [inhibitor, single point]
O=C(NCc1cccnc1)c1nc(-c2ccc(C(F)(F)F)cc2)no1 | active: 13 µM
Cc1ccc(CNc2ccc(Cl)cc2[N+](=O)[O-])cc1 | inactive
CC(C)C[C@H]1CNC(=S)N1CC1CCCN1C[C@H](CC(C)C)N1C[C@H](Cc2ccccc2)N(CC2CCCCCC2)C1=S (stereo partly specified) | active: 23.1 µM
CCN(CC)c1nc2ccccc2nc1-n1nc(C)cc1C | inactive
CCOC(=O)c1cccc(NS(=O)(=O)c2cc(-c3cnc(C4CC4)o3)ccc2C)c1 | active: 2.06 µM
CSc1ccccc1C(=O)NC1CCCN(c2ccc(C(F)(F)F)cn2)C1 (stereo unspecified) | inactive
COc1ccc(-c2nc(NC(=O)c3[nH]c(C)c(C(C)=O)c3C)sc2C)cc1 | inconclusive: 23.1 µM [inhibitor, single point]
Cc1ccc2oc(-c3cccc(NC(=O)Cc4ccc(Cl)cc4)c3)nc2c1 | inactive
COc1ccc(S(=O)(=O)CCc2nnc(NC(=O)c3ccc(F)cc3)s2)cc1 | inactive
O=C(O)CC1NC(=O)N(C2CCCCC2)C1=O (stereo unspecified) | inactive
CC(=O)N[C@@H](C)C(=O)NCC1Cc2cccc(-c3ccccc3C(F)(F)F)c2O1 (stereo partly specified) | inactive
COc1ccc2[nH]c(C)c(C(=O)CN3CCc4cc(OC)c(OC)cc4C3)c2c1 | active: 18.4 µM
CCOC(=O)c1c(S(=O)(=O)N2CCCC(C(=O)Nc3ccc(C)cn3)C2)c(C)n(C)c1C (stereo unspecified) | inactive and inconclusive: 23.1 µM [inhibitor, single point]

Structure (SMILES) | Potency
CC(C)c1nc(C#N)c(NN)o1 | inactive
Cc1cccc(/C=N/n2c(-c3cc(-c4ccccc4)n[nH]3)n[nH]c2=S)c1 | inconclusive: 29.1 µM [inhibitor, single point]
NC(=S)NN=Cc1nccc2c(N)cccc12 | active: 1.16 µM
CCOc1ccc(NC(=O)Nc2cccnc2)cc1 | inconclusive: 25.9 µM [inhibitor, single point]
COC(=O)[C@]1(Cc2ccccc2)N[C@H](CN(C)S(=O)(=O)c2ccc(C(F)(F)F)cc2)[C@@H]2C(=O)N(Cc3ccccc3)C(=O)[C@@H]21 | inconclusive: 29.1 µM [inhibitor, single point]
O=C(c1ccc(Cl)cc1)c1c[nH]c(C(=O)NNc2ccccc2)c1 | inactive
CCC(c1nnnn1Cc1cccs1)N1CCN(c2nc3ccccc3s2)CC1 (stereo unspecified) | inconclusive: 23.1 µM [inhibitor, single point]
CC1(C(=O)Nc2ccc(Cl)c(C(F)(F)F)c2)Cc2c(-c3ccc(C(N)=O)cc3)ccnc2O1 (stereo unspecified) | active: 14.6 µM
COCCNC(=O)c1cccc(NC(=O)C2=C(C)OCCS2)c1 | inactive
Cc1c(C(=O)OC(C)C)sc(NC(=O)C2c3ccccc3Oc3ccccc32)c1C(=O)OC(C)C | active: 23.1 µM
CN(C(=O)COc1ncnc2c1cnn2-c1ccccc1)C1CCCCC1 | inconclusive: 18.4 µM [inhibitor, single point]
CCS(=O)(=O)NCCc1csc(-c2ccc(OC)c(OC)c2)n1 | inconclusive: 0.58 µM [inhibitor, partial curve, poor fit]
COc1cc(F)ccc1CN1CCC(n2nccc2NC(=O)C2CCOC2)CC1 (stereo unspecified) | inactive
COc1ccc(C2CC(c3ccccc3OC(C)=O)=NN2C(=O)/C=C/c2ccccc2)cc1OC (stereo unspecified) | inconclusive: 29.1 µM [inhibitor, single point]
Cn1c(C(=O)NCc2cccs2)cc2oc3ccccc3c21 | inconclusive: 29.1 µM [inhibitor, single point]
COc1ccccc1/C=C/CN1CCC(n2nccc2NC(=O)CCc2ccccc2)CC1 | active: 11.6 µM
COc1cc(CNc2nc3ccccc3n2C)cc(OC)c1OC | inactive
CC(=O)Nc1ccc(S(=O)(=O)NNC(=O)COc2ccc(Cl)cc2Cl)cc1 | inactive
S=C1NCN(Cc2ccco2)CN1CCc1ccccc1 | inconclusive: 29.1 µM [inhibitor, partial curve, poor fit]
O=[N+]([O-])c1ccc(F)c(CN2CCN(c3ncc(Cc4ccccc4)cn3)CC2)c1 | active: 20.6 µM
CCOC(=O)c1ccc(N2C(=O)c3n[nH]c(C)c3C2c2cccnc2)cc1 (stereo unspecified) | inactive
CCOc1ccc(/C=C2\SC(=S)N(CCC(=O)N(CCO)c3ccccc3)C2=O)cc1 | inconclusive: 25.9 µM [inhibitor, single point]
CCCC[n+]1c(C)sc2ccc(C)cc21 | inconclusive: 25.9 µM [inhibitor, single point]
NS(=O)(=O)c1ccc(N=C2C(=O)Nc3ccccc32)cc1 | inactive
